Measurements published in ChEMBL document CHEMBL1201862, “PubChem BioAssay data set” (2004).
Counter-ions that a name gives are not always drawn.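 All cell lines were grown in 96-well plates and treated with compound for 48 hours. GI50 = concentration required for 50% inhibition of growth.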 Calls of active or inactive are those of the source. Rule as the data show it: active = GI50 up to about 1.1 µM and inactive = higher.

system: NCI-H322M; experiment: inhibition of tumour cell growth, NCI panel, 48 h

SMILES | GI50
C[C@H]1CC[C@@H]2[C@@H](C)[C@H]3[C@H](C[C@H]4[C@@H]5CC=C6C[C@@H](O)CC[C@]6(C)[C@H]5C[C@H](O)[C@]34C)N2C1 | inactive: > 100 µM
O=C(OCC1OC(c2nn[nH]n2)C(OC(=O)c2ccccc2)C1OC(=O)c1ccccc1)c1ccccc1 (centres undefined) | inactive: > 100 µM
COc1cc(O)cc2oc(-c3ccc(O)cc3)cc(=O)c12 | inactive: > 100 µM
O=S(O)c1cc(Cl)cc(Cl)c1O | inactive: > 100 µM
COc1cc(OCCN(C)C)c2[nH]c(C(=O)N3CC(CCl)c4c3cc(N)c3ccccc43)cc2c1 (centres undefined) | active: < 0.01 µM
COc1ccc(N2C(=O)c3cc(C)cnc3S2(=O)=O)cc1 | inactive: > 100 µM
[N-]=[N+]=NC1=C(N=[N+]=[N-])c2cccc3cccc(c23)C1=O | inactive: > 100 µM
Cc1c2c(cc3c1[nH]c1ccccc13)C(c1ccc(F)cc1)=NCC2 | inactive: 1.77 µM
CSC1=NN=C(SC)NN1 | active: 0.178 µM
COC1=CC(=O)c2c(O)c3c(c(O)c2C1=O)C=C(C)OC3O (centres undefined) | inactive: 1.41 µM
Cc1c(S(=O)(=O)N/C(=N\O)Nc2ccc(Cl)cc2)sc2ccc(Cl)cc12 | inactive: 17.7 µM
O=C(CCc1nnc2s/c(=C\c3ccc(Cl)c(Cl)c3)c(=O)n12)Nc1ccc(Cl)c(Cl)c1 | inactive: 51.5 µM
CC1(C)C2C/C(=C\c3ccccc3)C(=O)C1C2 (centres undefined) | inactive: > 100 µM
C[C@H](N)C(=O)Nc1ccc(-c2nc3ccccc3s2)cc1Cl | inactive: 14 µM
COC(=O)[C@@]12C(=O)C=CC(=O)C1C1C(=CC2C)OC2OC3(CCCCC3)OC21 (some centres undefined) | inactive: 18.6 µM
CC(=O)OCC1=C(COC(C)=O)C(=O)c2c(O)ccc(O)c2C1=O | inactive: 16 µM
O=S(=O)(O)c1ccc(/N=N/c2ccc(/N=N/c3c(O)ccc4ccccc34)cc2)cc1 | inactive: > 100 µM
O=c1oc2cc(O)ccc2c2oc3cc(O)ccc3c12 [COUMESTROL] | inactive: 28.4 µM
O=C(CSc1nc(=O)c(-c2ccccc2NC(=O)C(F)(F)F)n[nH]1)NC(=O)Nc1ccccc1 | inactive: > 100 µM
O=C(O)C(=O)Cc1ccc2c(c1)OCO2 | inactive: > 100 µM
COc1cccc(C(=O)C#Cc2cnc(OC)nc2OC)c1 | inactive: 17.7 µM
CC(C)(C)c1ccc(Oc2ccc(C#N)c(C#N)c2)c(C(C)(C)C)c1 | inactive: > 100 µM
O=C1C=CC(=O)c2c1cc1ccccc1c2O | inactive: 17.7 µM

SMILES | GI50
CC1=C(C#N)S(=O)(=O)c2c(oc(C)c2C)N1 | inactive: > 100 µM
Cc1ccc(NC(=O)CCC(=O)C2Cc3ccccc3C2=O)cc1C (centres undefined) | inactive: > 100 µM
COc1ccc(OC(C)C(=O)O)c2c(=O)ccccc12 (centres undefined) | inactive: > 100 µM
COc1ccc(CCNC2=CC(=O)c3ncccc3C2=O)cc1OC | inactive: 1.3 µM
Nc1cccc(C2CCCc3c2[nH]c2ccccc32)c1 (centres undefined) | inactive: 19.4 µM
CC(=O)C(C(c1ccccc1)N1CCOCC1)N1CCOCC1 (centres undefined) | inactive: > 100 µM
CC1=NC(=O)CNN1C1=NNC2(C(=O)N1)c1ccccc1-c1ccccc12 | inactive: > 100 µM
Cc1cc(O)c(C(=O)O)c2c1C(=O)c1c(O)c(OCC(O)C(O)C(O)C(O)CO)c(O)c(O)c1C2=O.NCCNCCO (centres undefined) | inactive: > 100 µM
CC1=CC(=O)CC(C)(C)C1(O)/C=C/C(C)=C/C(=O)O (centres undefined) | inactive: > 100 µM
Cc1c(-c2ccccc2)c(=O)oc2ccc(Cl)cc12 | inactive: > 100 µM
Cc1ccc(S(=O)(=O)NC(=O)NC(C(=O)O)C(C)O)cc1 (centres undefined) | inactive: > 100 µM
COc1ccc(Cc2cc(OC)c(OC)c(OC)c2)cc1 | active: 0.453 µM
CCOC(=O)C(=Cc1ccc(C(=O)OC)cc1)C(=O)OCC | inactive: 8.34 µM
O=C1OC(c2ccccc2)=N/C1=C\c1ccc(N(CCCl)CCCl)cc1 | inactive: > 100 µM
Clc1cc(Cl)ncn1 | inactive: > 100 µM
CC(=O)Nc1ccc2c3c(cc(O)c2c1)N(C(=O)CCCCCCC(=O)Nc1ccc2c4c(cc(O)c2c1)N(C(=O)OC(C)(C)C)CC4CCl)CC3CCl (centres undefined) | active: 0.258 µM
C(=N\N=C1NCCCN1)/c1ccc2ccccc2c1 | inactive: 15.7 µM
O=C1CCCCC(=O)Nc2ccccc2N1 | inactive: > 100 µM
CN1C(=O)C(=Cc2ccc(Br)cc2)C(=O)N(C)C1=O | inactive: > 100 µM
CCOC(=O)Nn1c(C)nnc1CC#N | inactive: > 100 µM
Clc1cc(N/N=C(/c2ccccc2)c2ncccn2)ncn1 | inactive: 24.3 µM
CN(C)CC1CCCC(CN2CCCCC2)C1=O (centres undefined) | inactive: > 100 µM
Cc1cc(C(=O)CSC(=S)SC(C)(C)C)ccc1Cl | inactive: 17.6 µM

SMILES | GI50
C1=C2SSC3=CC=C(SSc4ccc(s4)SSC4=CC=C(SSC(=C1)S2)S4)S3 | inactive: > 100 µM
OC(CNc1ccccn1)c1ccccc1 (centres undefined) [PHENYRAMIDOL HYDROCHLORIDE] | inactive: > 100 µM
O=[N+]([O-])c1cc(F)ccc1S(=O)(=O)c1ccccc1 | inactive: > 10 µM
O=C1c2ccccc2CC12Cc1cc3c(cc1C2)CCC3 | inactive: 58.5 µM
CC(=O)OCC1OC(n2c(C)c(/N=N/c3ccc(Cl)cc3)c(C)c(C#N)c2=S)C(OC(C)=O)C(OC(C)=O)C1OC(C)=O (centres undefined) | inactive: > 100 µM
Cc1cc(S(=O)(=O)Nc2nc3cc(-c4ccc(Cl)cc4)sc3c(=O)n2N)c(S)cc1Cl | inactive: 53.1 µM
C1=C[C@@H]2c3ccc4cnccc4c3NC[C@@H]2C1 | inactive: > 100 µM
CC(=O)O[C@H]1CC[C@@]2(C)C(=CC[C@@H]3[C@@H]2CC[C@]2(C)C(=N/O)/C(=C\c4ccccc4)C[C@@H]32)C1 | inactive: 17.4 µM
O=C(CSc1nnc[nH]1)C[P+](c1ccccc1)(c1ccccc1)c1ccccc1 | inactive: > 100 µM
BrCc1ccc(CBr)c2c1-c1c(CBr)ccc3ccc(CBr)c-2c13 | inactive: > 100 µM
Cc1nc(-c2ccccc2)c(-c2ccccc2)s1 | inactive: 31.3 µM
O=C1N=C(SC(SC2=NC(=O)C3(NN2)c2ccccc2-c2ccccc23)=C(SC2=NC(=O)C3(NN2)c2ccccc2-c2ccccc23)SC2=NC(=O)C3(NN2)c2ccccc2-c2ccccc23)NNC12c1ccccc1-c1ccccc12 | inactive: 6.67 µM
CCn1c(O)c(C(=O)Nc2cccs2)c(=O)n(CC)c1=S | inactive: 25.5 µM
Cc1cc(C)c(S(=O)(=O)N(CCCN)OCCON(CCCN)S(=O)(=O)c2c(C)cc(C)cc2C)c(C)c1 | inactive: 2.83 µM
COC1OC2COC(C)(C)OC2C2OC(C)(C)OC12 (centres undefined) | inactive: 36 µM
CC1CN1C(=O)NCCCCCCNC(=O)N1CC1C (centres undefined) | inactive: > 100 µM
OCCCCCNc1ccnc2cc(Cl)ccc12 | inactive: > 100 µM
C=C1[C@H](OC(=O)C(C)C)[C@@H](OC(C)=O)[C@@H](OC(C)=O)C(C)(C)[C@@H]2O[C@H]2[C@@H](C)C(=O)[C@@]2(OC(C)=O)C[C@@](C)(OC(C)=O)[C@H](OC(C)=O)[C@@H]2[C@H]1OC(C)=O | inactive: > 100 µM
COC(=O)[C@@H]1[C@H](O)CCC2=C(CC(=O)c3ccoc3)[C@H](C)CC[C@]21C | inactive: > 50 µM
CSc1ncc2c(n1)C(C#N)C1Sc3ccccc3N1C2=O (centres undefined) | inactive: > 100 µM
COc1c(O)ccc(C2=Cc3ccc(O)cc3OC2)c1OC | inactive: 27 µM
O=C(c1ccc(Cl)cc1)N1CCN=C1c1cc2ccccc2c2ccccc12 | inactive: 12.6 µM
O=C(O)CNc1ccc2c(c1)Cc1cc(Br)ccc1-2 | inactive: 21.7 µM

SMILES | GI50
NC1=CN(Cc2ccccc2)C2=N/C(=C\c3ccccc3)C(=O)N12 | inactive: > 100 µM
CCC(C)C(NC(=O)C(CCCCN)NC(=O)C(NC(=O)C(CCC(N)=O)NC(=O)C(CCCNC(=N)N)NC(C)=O)C(C)CC)C(=O)NC(Cc1c[nH]c2ccccc12)C(=O)NC(Cc1ccccc1)C(=O)NC(CCC(N)=O)C(=O)NC(CC(N)=O)C(=O)NC(CCCNC(=N)N)C(=O)NC(CCCNC(=N)N)C(=O)NC(CCSC)C(=O)NC(CCCCN)C(=O)NC(Cc1c[nH]c2ccccc12)C(=O)NC(CCCCN)C(=O)NC(CCCCN)C(N)=O (centres undefined) | inactive: > 50 µM
O=C1Nc2cccc(Cl)c2/C1=C\c1c(Cl)nc2sccn12 | inactive: > 100 µM
S=C(/N=c1/sc(Nc2ccccc2)nc2sc3c(c12)CCCC3)Nc1ccccc1 | inactive: > 62.5 µM
CC(SC(=S)N1CCOCC1)C(=O)Nc1nnc(-c2ccccc2)o1 (centres undefined) | inactive: > 100 µM
Cn1cnc([N+](=O)[O-])c1Sc1nnc(C(F)(F)F)n1C | inactive: > 100 µM
C=CC(CBr)CCC(Br)C(C)(C)Br (centres undefined) | inactive: > 10 µM
O=C(/C=C/c1ccc([N+](=O)[O-])cc1)N1CCN(CCOC(c2ccc(F)cc2)c2ccc(F)cc2)CC1 | inactive: 83 µM
CCOC(=O)C1(C(=O)OCC)OC(C)=NC1(C(=O)OC)C(=O)OC | inactive: > 89.9 µM
O=C1C2CC=CCC2C(=O)N1n1c(Cc2ccc(Cl)cc2)n[nH]c1=O (centres undefined) | inactive: > 100 µM
NC(=O)C1Cc2cc3c(cc21)OCO3 (centres undefined) | inactive: > 100 µM
CC(C)(C)OC(=O)NCCC1SC2C=CC1C2 (centres undefined) | inactive: > 100 µM
COc1ccc2c(c1)CCCC1C3=NCCC3(C)CSC21 (centres undefined) | inactive: > 100 µM
FC(F)(F)c1ccc2nc(Sc3ccc4ccccc4c3)cnc2c1 | inactive: > 100 µM
COc1ccc(C(=O)/C=C/c2cccnc2)cc1OC | inactive: 14.1 µM
CN(C)CCNC(=O)c1cccc2c(NC(CS)C(=O)O)c3ccccc3nc12 (centres undefined) | inactive: 9.2 µM
COC(=O)Cc1c(-c2[nH]c3ccccc3c2CC(=O)OC)[nH]c2ccccc12 | inactive: > 52.6 µM
C1=C(c2ccccc2)NC2=N[C@H]3CCCC[C@@H]3N2C1c1ccccc1 (some centres undefined) | inactive: 12 µM
NC(=O)NNC(=O)c1nc[nH]c1[N+](=O)[O-] | inactive: > 100 µM
CCCO/S(=N\S(=O)(=O)c1ccccc1)c1ccccc1[N+](=O)[O-] (centres undefined) | inactive: > 100 µM
